# Results from PubChem BioAssay AID463173 (ICCB-Longwood Screening Facility, Harvard Medical School, 2010).
# The campaign covered roughly 52,000 compounds. About 4,300 (8.3%) were called active. Cut-off read from the data, not from the text of the source: active = survival mostly below about 52% (no sharp cut-off); inactive = mostly above about 56%. The list shows a part of the results.
# System: DeltatarO mutant
# Assay: S. aureus survival, RN4220 and DeltatarO strains – OD600, teichoic acid synthesis inhibitors, primary screen (AID 463173)
# Conditions: S. aureus RN4220 wild type/DeltatarO growth, OD600, 18 h, stronger effect = lower value, screened at 18.75 µg/mL (by protocol)
row,Structure (SMILES),survival
1,Cc1ccc2c(c1)cc(C(=O)Nc1ccccc1C)n2C,inactive: 78%
2,CC1CCN(CC(=O)O)CC1,inactive: 99%
3,O=C(c1ccc(Cl)cc1)N1CCCC(c2nc(-c3ccc(Cl)cc3)no2)C1 (stereo not given),inactive: 87%
4,COc1cc(C2CC(=O)Nc3c2c(=O)[nH]c2nc4ccccc4n32)ccc1O (stereo not given),inactive: 161%
5,COc1ccc(CCNCc2c(C(=O)O)c(C)n(Cc3ccccc3C)c2C)c(OC)c1,inactive: 93%
6,CCOc1ccccc1N(C)C(=O)Cn1cnc2sc(C)c(S(=O)(=O)N3CCC(C)CC3)c2c1=O,inactive: 65%
7,Cc1ccc(Cn2nnc3c(=O)[nH]c(C4CCN(S(=O)(=O)/C=C/c5ccccc5)CC4)nc32)cc1,inactive: 89%
8,COc1cc(OC)c(NC(=O)COCc2cc(-c3cccs3)on2)cc1Cl,inactive: 71%
9,COc1ccccc1N1CCN(C(=O)Cn2ncc3c(=O)oc4ccccc4c32)CC1,inactive: 85%
10,Cc1cccc(N2CCN(S(=O)(=O)c3ccc4c(c3)CCCN4C(=O)C3CCC3)CC2)c1C,inactive: 68%
11,O=C(Nc1ccc(C(=O)OCc2cc(=O)n3nc(C4CC4)sc3n2)cc1)c1ccc(F)cc1,inactive: 84%
12,Cc1nc(N2CCCC2)c2c(C(=O)Nc3cccc(C)c3C)c(C)oc2n1,inactive: 92%
13,CC(=O)Nc1cccc(NC(=O)Cn2cnc3c2c(=O)n(C)c(=O)n3C)c1,inactive: 70%
14,O=C(Nc1cccc(Cl)c1)c1c(NC(=O)C(F)(F)F)sc2c1CCCC2,active: -2%
15,CCN(CC)c1ccc(NC(=O)C(Cc2ccccc2)NS(=O)(=O)c2ccc(Br)s2)c(C)c1 (stereo not given),inactive: 117%
16,COc1cccc(NC(=O)Nc2cc(-c3cn4cccnc4n3)ccc2C)c1,inactive: 85%
17,CCC(Sc1nnc(C)n2c1cc1occc12)C(=O)Nc1ccccc1F (stereo not given),inactive: 96%
18,O=C(NCCO)C(=O)Nc1c2c(nn1-c1ccc(F)cc1)CSC2,inactive: 82%
19,CN(C)S(=O)(=O)Nc1ccc(Cc2ccncc2)cc1,inactive: 100%
20,N#Cc1cn(CCOc2ccccc2F)c2ccccc12,inactive: 82%
21,COc1ccccc1CCNC(=O)CCc1c(C)c2cc3c(C)coc3c(C)c2oc1=O,inactive: 75%
22,CN(C)CCN(Cc1ccco1)S(=O)(=O)c1cc2c(cc1Cl)NC(=O)CO2,inactive: 57%
23,O=C(Cn1c(=O)n(Cc2ccco2)c(=O)c2oc3ccccc3c21)Nc1ccc(F)cc1F,inactive: 75%
24,COc1ccccc1-c1noc(-c2ccc(N3CCN(c4ccccc4)CC3)c([N+](=O)[O-])c2)n1,active: 44%
25,COc1ccc(N2CCN(c3cc(C)nc4nc(-c5ccc(C)cc5)nn34)CC2)cc1,inactive: 53%
